Measurements from patent US20250109186A1 (REGENTS OF THE UNIVERSITY OF MINNESOTA, published 2025).
Read-outs that look alike come from different tables or passages of the source.

B1: Nanosota-2A-Fc (Fc fusion)
chain: QVQLQESGGGAVQPGGSLGLSCTASGFNFETSTVGWFRQAPGKENEGVSCINKGYEDTNYADSVKGRFTISRDAAKNTVYLQMDSLQPEDTATYYCAAHNEPYFCDYSGRFRWNEYSYYGQGTQVTVSS[human IgG1 Fc omitted here]
B2: Nanosota-3A-Fc (Fc fusion)
chain: QVQLQESGGGLVQAGGSLRLSCAASGSIFSPNTMGWFRQALGKQREMVAVISSIASTQYANFVKGRFTITRDNTKNTVHLQMNSLIPEDTAVYYCYAVDKSQDYWGQGTQVTVSS[human IgG1 Fc omitted here]
B3: Nanosota-4A-Fc (Fc fusion)
chain: QVQLQESGGGLVQPGGSLRLSCAASGFTLDYYAIGWFRQAPGKEREGVSCISSSGGRTNYADSVKGRFTISRDNTKNTVYLQMNSLKPEDTAVYYCAAWEASRWYCPLQFSADFSSWGQGTQVTVSS[human IgG1 Fc omitted here]

Assays:
[1] = target: T1, prototypic SARS-CoV-2 RBD ([…]) with C-terminal His tag (SARS-CoV-2 (prototypic strain))
[2] = target: T1, prototypic SARS-CoV-2 RBD ([…]) with …; remark: listed apart in the source
[3] = target: T1, prototypic SARS-CoV-2 RBD ([…]) with …; remark: listed apart in the source
[4] = target: T1, prototypic SARS-CoV-2 RBD ([…]) with …; remark: listed apart in the source

| Binder | Kd [1] | koff [2] | kon [2] | koff [3] | kon [3] | koff [4] | kon [4] |
| --- | --- | --- | --- | --- | --- | --- | --- |
| B1 | 0.527 nM | 0.00228 s⁻¹ | 4.32e+06 M⁻¹ s⁻¹ |  |  |  |  |
| B2 | 4.55 nM |  |  | 0.00123 s⁻¹ | 270000 M⁻¹ s⁻¹ |  |  |
| B3 | 0.184 nM |  |  |  |  | 3.44e-05 s⁻¹ | 187000 M⁻¹ s⁻¹ |
